Test results from PubChem BioAssay AID1347430 (National Center for Advancing Translational Sciences (NCATS), 2020).
Among all 91,000 compounds or so, about 130 (0.14%) were called active. This list was built around the results that the source calls inconclusive (neither active nor inactive); the mix of calls is not that of the screen. The call rests on the fitted dose curve; in most records, active means well fitted inhibition curve with a large enough effect; inconclusive means small, poorly fitted or top-dose-only effect; inactive means flat fitted curve, though single readings scatter. Potencies of inconclusive entries are doubtful fits and often do not repeat.

tested on: Uracil-DNA glycosylase; assay: Primary qHTS assay for inhibitors of Activation Induced Cytidine Deaminase (AID): UDG Counterscreen signal; conditions: FRET deamination/UDG coupled assay, UDG read, 4 h; series mostly up to 115 µM; further: nearly all actives have a fitted effect of over 65% in size
Potency means the concentration at half of the fitted maximal effect; tags describe the fitted curve by direction and shape.

| Compound | Potency |
| --- | --- |
| Cc1ccc(S(=O)(=O)c2cn(Cc3ccccc3)c3cc(N4CCCC4)c(F)cc3c2=O)c(C)c1 | inconclusive: 79.4 µM [inhibitor, single point] |
| Nc1nn(-c2ccccc2)nc1C(=O)OCc1ccc(Cl)cc1 | inconclusive: 28.2 µM [inhibitor, full curve] |
| Cc1ccccc1OCCSc1nc2ccc(NC(=O)c3cccc(F)c3)cc2s1 | inconclusive: 89.1 µM [inhibitor, partial curve, poor fit] |
| COc1cc2ncc3c(-c4ccc(C)cc4)nn(-c4ccc(F)cc4F)c3c2cc1OC | inconclusive: 89.1 µM [inhibitor, partial curve, poor fit] |
| Cc1ccccc1-c1nc(CN2CCC(C(=O)NCc3ccc(F)cc3)CC2)c(C)o1 | inconclusive: 100 µM [inhibitor, single point] |
| Cc1ccc(Cn2c(SCCN3CCCCC3)nc3c2c(=O)n(C)c(=O)n3C)cc1 | inconclusive: 89.1 µM [inhibitor, single point] |
| COc1ccc(C2=NN3C(C2)c2cccc(OC)c2OC32CCN(C(C)=O)CC2)c(OC)c1 (stereo unspecified) | inconclusive: 39.8 µM [inhibitor, full curve] |
| CCc1ccc(NC(=O)CN2C(=O)c3cccc4cccc2c34)cc1 | inconclusive: 100 µM [inhibitor, single point] |
| O=C(NN=C(c1ccccc1)c1ccccc1)c1ccc[n+]([O-])c1 | inactive |
| COC(=O)C(C)Sc1ccc2nnc(CCNS(=O)(=O)c3ccc(C)cc3)n2n1 (stereo unspecified) | inconclusive: 89.1 µM [inhibitor, single point] |
| COc1cc(Cl)c(C)cc1Nc1nc2ccccc2c2nnc(C)n12 | inconclusive: 89.1 µM [inhibitor, single point] |
| COc1ccc(-c2cc(C)no2)cc1S(=O)(=O)NCc1cccs1 | inconclusive: 89.1 µM [inhibitor, single point] |
| CC(=O)N1CCc2c(sc3c2c(=O)n(-c2ccc(C)cc2)c(=O)n3Cc2c(F)cccc2Cl)C1 | inconclusive: 89.1 µM [inhibitor, partial curve, poor fit] |
| Cc1ccc(-c2nc(CS(=O)CC(=O)N3CCN(c4cccc(Cl)c4)CC3)c(C)o2)cc1 (stereo unspecified) | inconclusive: 79.4 µM [inhibitor, partial curve, poor fit] |
| CC1CC(NC(=O)C2CCC2)CC(C)(C)C1 (stereo unspecified) | inactive |
| COC(=O)c1ccc(/C=C(/C#N)C(=O)Nc2cccc(OC)c2)cc1 | inactive |
| Cc1ccc(C)c(N2CCN(C3=C(c4ccccc4)C(=O)c4ccccc43)CC2)c1 | inconclusive: 79.4 µM [inhibitor, single point] |
| COc1ccc(OC)c(CCNC(=O)c2cnn(-c3ccccc3Cl)c2C2CCN(C(=O)OC(C)(C)C)CC2)c1 | inconclusive: 50.1 µM [inhibitor, partial curve, poor fit] |
| Cc1cccc(N2CCN(C(=O)c3cc4c(=O)n(C)c5ccccc5c4s3)CC2C)c1 (stereo unspecified) | inactive |
| CCN(CC)C(=O)c1ccc2oc(CN3CCN(C(=O)Nc4cccc(F)c4)CC3)nc2c1 | inactive |
| Cc1ccc(C(=O)NN=C2CCC(C(C)(C)C)CC2)cc1 (stereo unspecified) | inactive |
| CC(CNC(=O)CN1C(=O)c2cccnc2Oc2ccc(Cl)cc21)c1ccccc1 (stereo unspecified) | inconclusive: 89.1 µM [inhibitor, single point] |

| Compound | Potency |
| --- | --- |
| Cc1oc2ncn(CC(C)C)c(=O)c2c1C(=O)NC(C)c1ccccc1 (stereo unspecified) | inconclusive: 79.4 µM [inhibitor, single point] |
| CCOc1ccc(Nc2nnc(-n3nc(C)cc3C)c3ccccc23)cc1 | active: 79.4 µM |
| COc1ccc(-c2nnc(SCC(=O)NC3CCCCC3)nc2-c2ccc(OC)cc2)cc1 | inconclusive: 89.1 µM [inhibitor, single point] |
| Cc1cc(Cl)ccc1NC(=O)Cn1nc(C(=O)O)c2ccccc2c1=O | inconclusive: 79.4 µM [inhibitor, partial curve, poor fit] |
| O=C(O)c1ccc(-c2ccc(Cc3ccc(-c4ccc(C(=O)O)cc4)o3)o2)cc1 | inactive |
| O=c1[nH]c(SCc2cccc(Cl)c2)nc2c1CCC2 | inconclusive: 100 µM [inhibitor, partial curve, poor fit] |
| O=C(COc1ccc(Cl)cc1)NCC(c1ccco1)S(=O)(=O)c1ccc(Cl)cc1 (stereo unspecified) | inconclusive: 79.4 µM [inhibitor, single point] |
| CC(C)c1ccc(C2C(C#N)=C(N)Oc3c2ccc2ccccc32)cc1 (stereo unspecified) | inconclusive: 89.1 µM [inhibitor, single point] |
| CC(O)CNc1nc(C(C)C)c2c(c1C#N)CCCC2 (stereo unspecified) | inactive |
| CC(Sc1nc(-c2ccccc2)c(-c2ccccc2)o1)C(=O)NC1CC1 (stereo unspecified) | inconclusive: 89.1 µM [inhibitor, partial curve, poor fit] |
| Cc1ccc(-c2cc3nccc(-c4cc([N+](=O)[O-])ccc4O)n3n2)cc1 | inactive |
| N#CCc1nnc(-c2ccccc2)s1 | inconclusive: 44.7 µM [inhibitor, partial curve, poor fit] |
| c1coc(-c2nc(-c3ccc4c(c3)OCCCO4)cs2)c1 | inactive |
| O=C(COc1ccc(Cl)cc1)NCC(c1cccs1)S(=O)(=O)c1ccc(F)cc1 (stereo unspecified) | inconclusive: 89.1 µM [inhibitor, single point] |
| O=S(=O)(c1ccc(-c2csc(=Nc3ccc(F)cc3)n2CCCCCCO)cc1)N1CCCC1 | inconclusive: 56.2 µM [inhibitor, partial curve, poor fit] |
| COc1cc(NC(=O)c2cc(S(=O)(=O)N3CCCCC3)c[nH]2)cc(OC)c1OC | inactive |
| Nc1nccnc1C(=O)Nc1cccc(OCc2ccccn2)c1 | inactive |
| CC(=O)Nc1ccc(S(=O)(=O)NCc2cccn2Cc2cccc(C)c2)cc1 | inconclusive: 89.1 µM [inhibitor, single point] |
| COc1ccc(CNc2oc(/C=C/c3cccc(OC)c3)nc2C#N)cc1 | active: 89.1 µM |
| CC(=O)c1c(C)[nH]c(C(=O)C(C)OC(=O)c2ccc(C)c(O)c2)c1C (stereo unspecified) | inactive |
| CC(=O)c1ccc(NC(c2ccc(F)cc2)c2nnc(-c3ccccc3)o2)cc1 (stereo unspecified) | inconclusive: 100 µM [inhibitor, single point] |
| N#CC1(NC(=O)CSc2c(Cl)cccc2Cl)CCCCC1 | inactive |

| Compound | Potency |
| --- | --- |
| CN(C(=O)Cn1ncc2c1-c1ccccc1OC2)c1ccc(Br)cc1 | inconclusive: 89.1 µM [inhibitor, partial curve, poor fit] |
| O=C(Nc1ccc2c(c1)OCO2)c1cc(-c2ccc(Cl)cc2)on1 | inconclusive: 100 µM [inhibitor, single point] |
| Cc1cc(C)cc(-n2ccnc(NCc3ccc(F)cc3)c2=O)c1 | inconclusive: 89.1 µM [inhibitor, single point] |
| Cc1cccc(-c2nc(C#N)c(NCc3ccccc3)o2)c1 | inconclusive: 89.1 µM [inhibitor, single point] |
| Cc1cc2ccccc2n2c(SCC(=O)Nc3cccc(C(F)(F)F)c3)nnc12 | inconclusive: 79.4 µM [inhibitor, partial curve, poor fit] |
| O=C(C1CC1)N1CCN(c2nc3c(F)cc(F)cc3s2)CC1 | inconclusive: 100 µM [inhibitor, single point] |
| O=C(CCc1ncc(-c2ccccc2)o1)NCc1ccccc1Cl | inactive |
| COc1ccc(OC)c(Nc2ncc3c(n2)CCN(Cc2cc(OC)c(OC)c(OC)c2)C3)c1 | inconclusive: 39.8 µM [inhibitor, partial curve, poor fit] |
| CCc1cc(C(=O)Nc2sc(Cc3ccccc3)cc2C(N)=O)cs1 | inactive |
| COC(=O)c1ccc(Cn2c(SCC(=O)NCc3ccccc3)nc3ccccc32)cc1 | inconclusive: 100 µM [inhibitor, single point] |
| O=C(NCCCc1nc2ccccc2n1Cc1ccccc1)C1CCCCC1 | inconclusive: 89.1 µM [inhibitor, single point] |
| Cc1ccc(C(=O)Cn2c(Cl)nc3c2c(=O)n(C)c(=O)n3C)c(C)c1 | inactive |
| Cc1ccc(NC(=O)C2CCN(c3nnc(C)c4c(C)n(-c5ccccc5)nc34)CC2)cc1Cl | inconclusive: 89.1 µM [inhibitor, single point] |
| Cc1ccc(OCCCSc2nc(-c3ccc(C(C)(C)C)cc3)nc3cc(=O)[nH]n23)cc1C | inconclusive: 89.1 µM [inhibitor, partial curve, poor fit] |
| CNC(=O)NC(=O)C(C)Sc1cccc2cccnc12 (stereo unspecified) | inactive |
| CN(C)c1ccc(NC(=O)CSC2=Nc3ccccc3C3=NC(CCC(=O)NCc4cccs4)C(=O)N23)cc1 (stereo unspecified) | inconclusive: 70.8 µM [inhibitor, single point] |
| Cc1cc(C)cc(OCCN(C)C(=O)c2cc(=O)[nH]c3ccccc23)c1 | inactive |
| CC1Cc2cc(S(=O)(=O)NCc3ccc(N(C)C)cc3)ccc2N1C(=O)C1CCC1 (stereo unspecified) | inconclusive: 89.1 µM [inhibitor, partial curve, poor fit] |
| CCN1C(=O)C(Cc2nc3ccccc3c(=O)n2-c2ccc(OC)cc2)c2ccccc21 (stereo unspecified) | inconclusive: 100 µM [inhibitor, single point] |
| CCN(CC)c1ccc(-c2nc(-c3ccco3)no2)cc1[N+](=O)[O-] | inconclusive: 56.2 µM [inhibitor, partial curve, poor fit] |
| COc1ccc(NC(=O)c2cnc(N3CCCCC3)c3ccccc23)cc1Cl | inconclusive: 70.8 µM [inhibitor, single point] |
| CCCCN(CCCNC(=O)c1c(C)oc2nc[nH]c(=O)c12)Cc1ccccc1 | inconclusive: 44.7 µM [inhibitor, partial curve, poor fit] |
